Experimental data as given in patent US20100331233A1, “CRYSTAL OF XPA AND ERCC1 COMPLEX AND USES THEREOF” (priority 2007, published 2010).
No end group written: not given here.

Test system: NER activity in HeLa cell extracts
Experiment: In vitro NER assay: excision of a 1,3-intrastrand cisplatin adduct from plasmid in HeLa cell extract with XPA peptide
Details: HeLa cell free extract, plasmid with 1,3-cisplatin intrastrand crosslink, peptide 46 nM to 92 μM
Protocol: FIG. 4 illustrates that the XPA67-80 peptide is an effective inhibitor of NER activity. […]; lanes 2 and 7, 46 nM XPA peptide; lanes 3 and 8, 460 nM; lanes 4 and 9, 4.6 μM; lanes 5 and 10, 46 μM; lanes 6 and 11, 92 μM). […] Biol., 113, 373-392). The marker DNA ladder is labeled LMW DNA ladder. […] . The DNA substrate and the cleavage products are indicated.
One way to determine inhibition of NER activity is by determining the level of characteristic NER excision products in the presence or absence of increasing concentrations of a test compound. For example, as exemplified below, the excision of an oligonucleotide containing damage from a plasmid in a cell-free NER-proficient cell extract and the effects of a putative NER inhibitor on this reaction can be measured by radioactive labeling and analysis by denaturing PAGE. Inhibition of formation of an XPA-ERCC1 complex can be determined by, for example, by a competitive binding assay. […] Binding of a competitor is detected as a loss of fluorescence polarization. Fluorescence polarization detection is centered on the principle that smaller molecules rotate faster than larger molecules in solution. […] Fluorescence can be used to probe these differences in rotation rates since the time required for a fluorophore to emit a photon after excitation requires a measurable amount of time, typically in the nanosecond range for most fluorophores. […]

For KIIDTGGGFILEEE [XPA67-80], the “effect on NER excision of the lesion-containing oligonucleotide” value was “complete inhibition was achieved at a concentration of XPA peptide in the low micromolar range”.
